# Experimental data from the supplement of paper PMC8728848.
# The list shows a part of the results.
# B1: Nc3LysM (protein)
# chain: QFTVPPDTTAEPNTIKTCTWWHVAGSGDSCTSIASTYGITSEQFARWDMETTDSPKNPSVATACKLTVGNSYCIENNFGQDDPPTPSISSSTLIGTATTSTTASTTTGNGISTPTPIQEGMETATTTTSSGNGITTPTPTQAGMETVGNCDRFHLVKSGDQCGTIASTYGITLANFYSWNPAVGTSCQSLWLDTYVCVRTIGFVPPKTTTTTTKKPTSTTSAGGVATPTPTQPGMETVSGCKKFHKGRGNVSTVASGDQCGTIATRYGISLANFYSWNPAVGSSCQTLWLDYYVCVGR
# What was measured:
# Assay in all cases: glycan array binding signal (z-score within array); higher = stronger binding
# Details in all cases: glycan notation: IUPAC condensed, linker removed
# [1] = molecular target: Fuc(a1-2)Gal(b1-4)GlcNAc(b1-3)Gal(b1-4)GlcNAc(b1-3)Gal(b1-4)GlcNAc
# How it was run: (§1)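 Negative Z-scores can be read as non-binding. The Z-score is calculated within each array and then averaged across arrays of one protein sequence at different concentrations or buffers and across linkers. Arrays, 3228 in all, were curated from the Consortium for Functional Glycomics database and kept only where the protein sequence was available.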
# [2] = molecular target: Fuc(a1-2)Gal(b1-4)GlcNAc(b1-3)GalNAc
# How it was run: as §1
# [3] = molecular target: Fuc(a1-2)Gal(b1-4)GlcNAc(b1-3)[Fuc(a1-2)Gal(b1-4)GlcNAc(b1-6)]GalNAc
# How it was run: as §1
# [4] = molecular target: Fuc(a1-2)Gal(b1-4)GlcNAc(b1-3)[Fuc(a1-3)[Gal(b1-4)]GlcNAc(b1-6)]Gal(b1-4)Glc
# How it was run: as §1
# [5] = molecular target: Fuc(a1-2)Gal(b1-4)GlcNAc(b1-6)GalNAc
# How it was run: as §1
# [6] = molecular target: Fuc(a1-2)Gal(b1-4)GlcNAc6S
# How it was run: as §1
# [7] = molecular target: Fuc(a1-2)Gal(b1-4)[Fuc(a1-3)]GlcNAc
# How it was run: as §1
# [8] = molecular target: Fuc(a1-2)Gal(b1-4)[Fuc(a1-3)]GlcNAc(b1-2)Man(a1-3)[Fuc(a1-2)Gal(b1-4)[Fuc(a1-3)]GlcNAc(b1-2)Man(a1-6)]Man(b1-4)GlcNAc(b1-4)[Fuc(a1-6)]GlcNAc
# How it was run: as §1
# [9] = molecular target: Fuc(a1-2)Gal(b1-4)[Fuc(a1-3)]GlcNAc(b1-2)[Fuc(a1-2)Gal(b1-4)[Fuc(a1-3)]GlcNAc(b1-4)]Man(a1-3)[Fuc(a1-2)Gal(b1-4)[Fuc(a1-3)]GlcNAc(b1-2)Man(a1-6)]Man(b1-4)GlcNAc(b1-4)GlcNAc
# How it was run: as §1
# [10] = molecular target: Fuc(a1-2)Gal(b1-4)[Fuc(a1-3)]GlcNAc(b1-3)Gal(b1-4)[Fuc(a1-3)]GlcNAc
# How it was run: as §1
# [11] = molecular target: Fuc(a1-2)Gal(b1-4)[Fuc(a1-3)]GlcNAc(b1-3)Gal(b1-4)[Fuc(a1-3)]GlcNAc(b1-3)Gal(b1-4)[Fuc(a1-3)]GlcNAc
# How it was run: as §1
# [12] = molecular target: Fuc(a1-2)Gal(b1-4)[Fuc(a1-3)]GlcNAc(b1-3)GalNAc
# How it was run: as §1
# [13] = molecular target: Fuc(a1-2)Gal(b1-4)[Fuc(a1-3)]GlcNAc(b1-3)[Neu5Ac(a2-6)Gal(b1-4)GlcNAc(b1-6)]Gal(b1-4)Glc
# How it was run: as §1
# [14] = molecular target: Fuc(a1-2)Gal3S(b1-4)GlcNAc
# How it was run: as §1
# [15] = molecular target: Fuc(a1-2)Gal6S(b1-3)GlcNAc
# How it was run: as §1
# [16] = molecular target: Fuc(a1-2)Gal6S(b1-3)GlcNAc6S
# How it was run: as §1
# Fuc(a1-2)Gal6S(b1-4)Glc = molecular target: Fuc(a1-2)Gal6S(b1-4)Glc
# How it was run: as §1
# [17] = molecular target: Fuc(a1-2)Gal6S(b1-4)Glc6S
# How it was run: as §1
# Fuc(a1-2)[Gal(a1-3)]Gal = molecular target: Fuc(a1-2)[Gal(a1-3)]Gal
# How it was run: as §1
# [18] = molecular target: Fuc(a1-2)[Gal(a1-3)]Gal(b1-3)GalNAc
# How it was run: as §1
# [19] = molecular target: Fuc(a1-2)[Gal(a1-3)]Gal(b1-3)GalNAc(b1-3)Gal(a1-4)Gal(b1-4)Glc
# How it was run: as §1
# [20] = molecular target: Fuc(a1-2)[Gal(a1-3)]Gal(b1-3)GlcNAc
# How it was run: as §1
# [21] = molecular target: Fuc(a1-2)[Gal(a1-3)]Gal(b1-3)GlcNAc(b1-2)Man(a1-3)[Fuc(a1-2)[Gal(a1-3)]Gal(b1-3)GlcNAc(b1-2)Man(a1-6)]Man(b1-4)GlcNAc(b1-4)GlcNAc
# How it was run: as §1
# [22] = molecular target: Fuc(a1-2)[Gal(a1-3)]Gal(b1-3)GlcNAc(b1-2)Man(a1-3)[Fuc(a1-2)[Gal(a1-3)]Gal(b1-3)GlcNAc(b1-2)Man(a1-6)]Man(b1-4)GlcNAc(b1-4)[Fuc(a1-6)]GlcNAc
# How it was run: as §1
# [23] = molecular target: Fuc(a1-2)[Gal(a1-3)]Gal(b1-3)GlcNAc(b1-3)GalNAc
# How it was run: as §1
# [24] = molecular target: Fuc(a1-2)[Gal(a1-3)]Gal(b1-3)GlcNAc(b1-6)GalNAc
# How it was run: as §1
# [25] = molecular target: Fuc(a1-2)[Gal(a1-3)]Gal(b1-4)Glc
# How it was run: as §1
# [26] = molecular target: Fuc(a1-2)[Gal(a1-3)]Gal(b1-4)GlcNAc
# How it was run: as §1
# [27] = molecular target: Fuc(a1-2)[Gal(a1-3)]Gal(b1-4)GlcNAc(b1-2)Man
# How it was run: as §1
# [28] = molecular target: Fuc(a1-2)[Gal(a1-3)]Gal(b1-4)GlcNAc(b1-2)Man(a1-3)[Fuc(a1-2)[Gal(a1-3)]Gal(b1-4)GlcNAc(b1-2)Man(a1-6)]Man(b1-4)GlcNAc(b1-4)GlcNAc
# How it was run: as §1
binder,measurement,setting,value
B1,glycan array binding signal (z-score),[1],-0.012
same,glycan array binding signal (z-score),[2],-0.257
same,glycan array binding signal (z-score),[3],-0.181
same,glycan array binding signal (z-score),[4],0.036
same,glycan array binding signal (z-score),[5],0.068
same,glycan array binding signal (z-score),[6],-0.064
same,glycan array binding signal (z-score),[7],-0.016
same,glycan array binding signal (z-score),[8],0.018
same,glycan array binding signal (z-score),[9],-0.008
same,glycan array binding signal (z-score),[10],0.045
same,glycan array binding signal (z-score),[11],0.172
same,glycan array binding signal (z-score),[12],-0.251
same,glycan array binding signal (z-score),[13],-0.078
same,glycan array binding signal (z-score),[14],0.052
same,glycan array binding signal (z-score),[15],-0.054
same,glycan array binding signal (z-score),[16],-0.032
same,glycan array binding signal (z-score),Fuc(a1-2)Gal6S(b1-4)Glc,-0.105
same,glycan array binding signal (z-score),[17],-0.049
same,glycan array binding signal (z-score),Fuc(a1-2)[Gal(a1-3)]Gal,-0.097
same,glycan array binding signal (z-score),[18],-0.136
same,glycan array binding signal (z-score),[19],-0.299
same,glycan array binding signal (z-score),[20],-0.128
same,glycan array binding signal (z-score),[21],-0.121
same,glycan array binding signal (z-score),[22],-0.142
same,glycan array binding signal (z-score),[23],-0.207
same,glycan array binding signal (z-score),[24],0.094
same,glycan array binding signal (z-score),[25],-0.306
same,glycan array binding signal (z-score),[26],-0.133
same,glycan array binding signal (z-score),[27],-0.232
same,glycan array binding signal (z-score),[28],-0.096
